The chains are these.
B1: OR4K15 (parent)
chain: GUUAACGGUCAUAGGCCAUGGAAACUAGGAGCACCAUUUCGCUGCCAGUGAAGAAAUGAACAAAGAAAAUCUGGGCCAGGCAGGCAUCAAAAGAAAUAGUCUUGCGCUCAACCAGAAAGUCUGUAAUCAUUUUAAGGGUA

Read counts are not given, so values of variants with three or more changes are uncertain.

The variants in the data set derive from B1. Kind of data set: self-cleavage, relative activity (ratio to wild type); higher = more cleavage; in vitro, sequencing; the parent is a self-cleaving ribozyme.
In the case of A18G A27G A68G A82G A110G, the self-cleavage worked out at 0. The figure for A18U U19G G50A A54G A68C is 1.31. The figure for U19A U39G A54G A94G is 0.96. The figure for U19A A62G A86G is 1.31; for U19A U38C A67G U131C it is 1.85; for A18U A23G A60G it is 0.89. For the variant A18U A30G U120C A126G, the self-cleavage is 0.77.

Regarding A18U A63C A90G A94G A110U, the self-cleavage stood at 0.68. The same measure for U19C A24C A68G A116G: 0.13. In the case of A18U A64G A92G, the self-cleavage is 0.87.

On to A18U U26C A82G A92G, for which the self-cleavage is 0.4. Regarding A18U U43C A68C, the self-cleavage came to 1.9. The figure for A18G C71U A78G U97A is 0.45. The same measure for U19A U39C A51G: 2.36; for U19A A23U A82G U87C A111G: 0; for A18G U57A U103A A116G: 0.22. With A18U U39C A69G C85A A95G, the self-cleavage came to 1.23.

For the variant A18G U103A A110G A125G, the self-cleavage is 0.1. As for A18U G29U A55U A63G U108C, the self-cleavage stood at 0.02. The same measure for A18U A30C A52G: 0.5; for A18G A64G A140G: 1.23; for U19C A52G U87C A94G U108C: 0.01. The same measure for A18G A33G A59G A82U C88U: 0.1; for A18G A52G A59G U102C U124C: 0.58; for A18G A95G U120C: 1.13.

Regarding A18G U26C A52U U120C, the self-cleavage was 1.06. The figure for U19C A30U U39A is 1.02; for A18U A56G U120C it is 0.85. The figure for A18G A62C A95G A129U is 1.1; for U19C A62G U72C it is 0.12; for A18U A36U A78G it is 0.34.

As to A18U A66U A92G, the self-cleavage was found to be 1.42. The figure for A18G A114G A129G U132A is 0.15. As for A18G U49C U102C, the self-cleavage worked out at 2.06. As to U19A A24C A118C, the self-cleavage turned out to be 1.55. The figure for A18G U38C U139A is 0.85; for U19A A68G U97C A110G it is 0.09; for A18U A24G A56G it is 0.25. As for A18U U57C A90G A95G A135G, the self-cleavage is 1.31.

For the variant U19A U37C U39A A60G, the self-cleavage stood at 0.57.

Take U19C A51G A96U U102C: the self-cleavage stood at 2.83.

In the case of A18U A60G A117G, the self-cleavage came out at 1.55. In the case of A18U A33C C34U, the self-cleavage is 0.64. As for U19A A36G U38A U100C, the self-cleavage was 1.07. The same measure for A18U A68G U130C A140G: 0.21; for U19C A33G A66U A96G: 0.42. On to A18U A47U A60G A94G U120C, for which the self-cleavage is 0.23. For the variant U19C A63G U87C, the self-cleavage turned out to be 1.61. Take U19C A51G A89G: the self-cleavage came to 1.27. Turning to A18U U19G A47G, the self-cleavage worked out at 1.03. With A18U U38A A62G A66G, the self-cleavage worked out at 0.28. The figure for U19C A24G A111G is 0.08; for A18U A52G A60G U122A it is 1.04; for A18G A68G U122C it is 0.41. As to U19A A24G A95G U108C A118U, the self-cleavage came to 0. Turning to U19C A47G A52G, the self-cleavage worked out at 0.86. The figure for A18G U37A A90U A94G A95G is 1.51. The figure for U19A A94G A114U is 0.08; for A18G A55G A69G U131C it is 1.33.

In the case of A18U C32U A56G, the self-cleavage worked out at 1.29. The figure for A18U U26C A82C is 0.23; for A18G U108A A110G it is 0.02; for U19A A69G A96G it is 1.8. With A18U A36G A54G U133C, the self-cleavage was determined as 1.37.

In the case of A18G U39G A52G A63U, the self-cleavage worked out at 0.61. As for U19C A22G U57C A114G A140U, the self-cleavage was determined as 0.19.

On to A18U A54G A55G, for which the self-cleavage was found to be 0.45. In the case of U19A U57G A67G, the self-cleavage worked out at 0.61. The figure for A18U A52G A78G U97A A117G is 0.32; for U19C A56G A66U C101A it is 0.05; for U19C A47G A63G C112G it is 0. On to U19A U38C A90G, for which the self-cleavage worked out at 1.49. Turning to A18G A27U G83U G123A, the self-cleavage came out at 0.47. The same measure for U19C A22G A51G A89G: 0.69; for U19A A47U U72C A118G: 0; for U19C A23G A59G A63G: 0.46.

Consider A18G A54G A62G U120C, for which the self-cleavage is 0.89. A18U A78G A94G C112U: the self-cleavage worked out at 0.03.

As to A18G A78U A86G A94G, the self-cleavage was 0.28.

On to U19C A27G A51G G79A U120A U132A, for which the self-cleavage amounted to 0.08. The figure for U19C A36U A66G A67G is 0.97. Turning to A18G A47C A68G A86G U87C U131C, the self-cleavage came out at 0.86. The same measure for U19C A55C A90G U108C U130C: 0.02.

The values are drawn from the RNAGym collection of RNA variant scans (doi:10.7554/elife.90254).
